Data taken from PubChem BioAssay AID540317 (National Center for Advancing Translational Sciences (NCATS), 2011).
Screen size: about 390,000 compounds; about 2,200 (0.56%) were called active. The shares of active, inactive and inconclusive entries below differ from those in the screen. Calls follow the shape of the dose curve; as a rule, active = well fitted inhibition curve with a large enough effect; inconclusive = small, poorly fitted or top-dose-only effect; inactive = no such curve, though single readings can be large or run the other way. Where the call is inconclusive, the potency comes from a doubtful curve fit.

Target: Chromobox protein homolog 1 (Homo sapiens) (UniProt P83916)
UniProt P83916, sequence (P83916 whole entry, looked up): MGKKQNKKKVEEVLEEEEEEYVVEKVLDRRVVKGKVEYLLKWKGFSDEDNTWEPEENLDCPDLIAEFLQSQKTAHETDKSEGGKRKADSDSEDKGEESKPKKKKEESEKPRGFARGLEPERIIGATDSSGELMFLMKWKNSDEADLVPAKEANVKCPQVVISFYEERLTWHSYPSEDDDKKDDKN
Assay: HTS for Inhibitors of HP1-beta Chromodomain Interactions with Methylated Histone Tails; also: nearly all actives have a fitted effect of over 70% in size
Details: AlphaScreen HP1-beta / biotin-H3K9me3 peptide binding; series mostly up to 114 µM; activity change, negative = inhibition: at the top concentration
How it was run: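 Compound inhibition of the preformed complex between 50 nM HP1-beta and 50 nM biotinylated H3K9me3 peptide was read by AlphaScreen. Buffer was PBS pH 7.4 with 0.01% Tween-20. Incubations ran 30 min at room temperature, with 10 ug/mL donor/acceptor beads.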
Potency is read from the fitted curve at half-maximal effect; tags tell the direction and shape of the fitted curve.

Row | Compound | activity change, negative = inhibition | Potency
1 | CCC(CC)NC(=O)CSc1ccc(S(=O)(=O)N2CCCCC2)cn1 | inactive: 28.1% | 
2 | COc1ccc(N2CSC3=C(C#N)C(c4cccc(OC)c4OC)CC(=O)N3C2)cc1 (stereo not drawn) |  | inconclusive: 20 µM [inhibitor, full curve]
3 | COc1ccc(-c2nc(=S)[nH][nH]2)cc1OC |  | inconclusive: 70.8 µM [inhibitor, partial curve]
4 | COc1cc2c(cc1OC)CN(c1ccc(F)cc1[N+](=O)[O-])CC2 |  | inconclusive: 50.1 µM [inhibitor, partial curve, poor fit]
5 | Cc1ccc(CN2C(=O)N/C(=C/c3ccc(-c4ccc(C(=O)O)cc4)o3)C2=O)cc1 |  | inconclusive: 70.8 µM [inhibitor, single point]
6 | CN1CCN(C(=S)c2ccc(Br)cc2)CC1 | inactive: -20.6% | 
7 | O=C(CSc1ccc2c(c1)OCCO2)NCc1ccccc1 | inactive: 26.6% | 
8 | Cc1ccc(NS(=O)(=O)c2ccc(N/N=C/c3ccccc3OCC(=O)O)c([N+](=O)[O-])c2)c(C)c1 |  | inconclusive: 20 µM [inhibitor, full curve]
9 | Cc1cccc(NC(=O)CN2C(=O)S/C(=C\c3cccn3-c3cccc(C(=O)O)c3)C2=O)c1 |  | inconclusive: 56.2 µM [inhibitor, partial curve, poor fit]
10 | O=C(COc1nsnc1N1CCOCC1)Nc1ccc([N+](=O)[O-])cc1 |  | inconclusive: 56.2 µM [inhibitor, partial curve, poor fit]
11 | CCn1c(SCC(=O)Nc2cc(OC)ccc2OC)nnc1C1CCCCC1 |  | inconclusive: 39.8 µM [inhibitor, single point]
12 | CSc1ccc(CN2CCN(C(=O)c3ccc([N+](=O)[O-])cc3)CC2)cc1 |  | inconclusive: 22.4 µM [inhibitor, single point]
13 | Clc1cccc(CN2CCCCCCC2)c1Cl |  | inconclusive: 35.5 µM [inhibitor, partial curve]
14 | CCc1cccc(C)c1Nc1c(-c2ccc(F)cc2)nc2sccn12 |  | inconclusive: 39.8 µM [inhibitor, partial curve]
15 | S=c1[nH]nc(-c2ccco2)n1/N=C/C(Cl)=C/c1ccccc1 |  | inconclusive: 17.8 µM [inhibitor, full curve]
16 | Cc1c(/C(O)=C2/C(=O)C(=O)N(CCN3CCOCC3)C2c2cccnc2)cnn1-c1ccccc1 (stereo not drawn) | inactive: 12% | 
17 | Cc1ccc(CNc2nc(-c3ccco3)nn2C(=O)c2ccccc2[N+](=O)[O-])cc1 |  | inconclusive: 28.2 µM [inhibitor, partial curve]
18 | Cc1ccc(NCC(O)C(O)C(O)CO)c(N=Nc2ccccc2)c1C (stereo not drawn) |  | inconclusive: 20 µM [inhibitor, full curve]
19 | O=C(CN1CCN(c2ncccn2)CC1)NCCC1=CCCCC1 |  | inconclusive: 15.8 µM [inhibitor, full curve]
20 | CN(C)C(=S)c1ccccc1 |  | inconclusive: 25.1 µM [inhibitor, partial curve]
21 | O=C(CCNc1ccc(F)cc1)c1cccc([N+](=O)[O-])c1 |  | inconclusive: 15.8 µM [inhibitor, partial curve, poor fit]
22 | CC1CCCCC1NC(=O)CNC(=O)c1ccco1 (stereo not drawn) | inactive: 6.74% | 
23 | Cc1cc(C)c2c(c1)NC(c1cc3c(cc1Br)OCO3)C1CC=CC21 (stereo not drawn) |  | inconclusive: 0.708 µM [inhibitor, full curve, poor fit]

Row | Compound | activity change, negative = inhibition | Potency
24 | COc1ccc(OC)c(Nc2c3ccccc3nc3ccccc23)c1 |  | inconclusive: 25.1 µM [inhibitor, single point]
25 | Oc1ccc2ccccc2c1/C=N/c1nccs1 | inactive: -16.7% | 
26 | CCOC(=O)C1=C(C)N=C2SC(C(=O)OC)=CC(=O)N2C1c1ccc(F)cc1 (stereo not drawn) |  | inconclusive: 20 µM [inhibitor, full curve, poor fit]
27 | Cc1ccc2c(c1)-c1c(ssc1=S)C(C)(C)N2C(=O)CSC1=NCCS1 |  | inconclusive: 8.91 µM [inhibitor, full curve]
28 | O=C(COc1ccc2oc3c(c2c1)CCCC3)Nc1cccc(Br)c1 | inactive: 7.45% | 
29 | COc1cc2sc(-c3ccccc3OC)c(-c3ccc(OCCN4CCCCC4)cc3)c2cc1OC |  | inconclusive: 44.7 µM [inhibitor, partial curve]
30 | Cc1nc(N2CCN(C(=O)c3ccco3)CC2)c(C#N)c2c1CCCC2 | inactive: 14.2% | 
31 | O=C(CCCCn1cnc2c(=S)nc[nH]c21)Nc1ccc(C(=O)O)cc1 |  | active: 70.8 µM
32 | CCOc1cccc(OCCCCn2ccnc2)c1 |  | inconclusive: 79.4 µM [inhibitor, single point]
33 | COc1cccc(N/N=C/c2cccc(Br)c2O)c1 |  | inconclusive: 89.1 µM [inhibitor, single point]
34 | Cc1oc(-c2ccccc2)nc1C(=O)N1CCN(c2ccc(F)cc2)CC1 |  | inconclusive: 44.7 µM [inhibitor, partial curve]
35 | Cc1ccc(C)c(N2CCN(CCN3CCCCC3)CC2)c1 |  | inconclusive: 28.2 µM [inhibitor, single point]
36 | COc1ccccc1/C=C1\SC(=S)N(CCC(=O)N2CCN(C)CC2)C1=O |  | inconclusive: 56.2 µM [inhibitor, single point]
37 | CCNC(=S)N=Nc1c(O)n(Cc2ccc(Cl)cc2)c2ccccc12 |  | inconclusive: 35.5 µM [inhibitor, partial curve]
38 | CCCc1nc2c(C)ccc(C)c2c(N)c1CC |  | inconclusive: 70.8 µM [inhibitor, partial curve, poor fit]
39 | Cc1cc(C(=O)OCC(N)=O)c(C)n1-c1ccccc1 |  | inconclusive: 28.2 µM [inhibitor, full curve]
40 | CCN(CC)CCNC(=O)c1ccc(NC(=O)c2ccc(Cl)c(S(=O)(=O)N3CCCCCC3)c2)cc1 | inactive: -23.8% | 
41 | CC(=O)N1CCN(CC(O)COc2ccc(OCc3ccccc3)cc2)CC1 (stereo not drawn) | inactive: 4.26% | 
42 | CCCNC(=O)c1csc(Nc2cccc3ccccc23)n1 | inactive: -5.34% | 
43 | O=C1NC(=O)/C(=C/c2ccccc2Cl)N1 |  | inconclusive: 79.4 µM [inhibitor, partial curve, poor fit]
44 | O=C(CN(C(=O)c1csnn1)c1ccccc1Cl)NC1CCCCC1 | inactive: 6.05% | 
45 | Cc1ccc(NC(=S)Nc2ccc3[nH]c(=O)[nH]c3c2)cc1 | inactive: -14.7% | 
46 | CCN(CCCNC(=O)CN1N=C(c2ccc(OC)cc2)CCC1=O)c1cccc(C)c1 |  | inconclusive: 50.1 µM [inhibitor, partial curve, poor fit]

Row | Compound | activity change, negative = inhibition | Potency
47 | COC(CNC(=O)c1ccc2c3c(onc13)-c1ccccc1C2=O)OC |  | inconclusive: 39.8 µM [inhibitor, partial curve]
48 | N=C1/C(=C\c2coc3ccccc3c2=O)C(=O)N=C2SC(c3ccncc3)=NN12 |  | inconclusive: 17.8 µM [inhibitor, full curve]
49 | O=C(O)C(=O)Cc1c[nH]c2ccccc12 |  | inconclusive: 39.8 µM [inhibitor, partial curve, poor fit]
50 | COc1cc(CNCc2cc(OC)c(OC)c(OC)c2)cc(OC)c1 |  | inconclusive: 14.1 µM [inhibitor, full curve, poor fit]
51 | O=C(Nc1ccc(N2CCOCC2)cc1)c1cc2c(s1)CCCCC2 |  | inconclusive: 50.1 µM [inhibitor, partial curve]
52 | O=C(CCN1C(=O)C2C3CC(C(Br)C3Br)C2C1=O)OCC(=O)c1cccc([N+](=O)[O-])c1 (stereo not drawn) |  | inconclusive: 79.4 µM [inhibitor, single point]
53 | COc1ccc2c(c1)c1ncn(CCN3CCCC3)c(=O)c1n2C | inactive: 24.6% | 
54 | CCN(CC)C(=O)C1CCCN(Cc2ccccc2F)C1 (stereo not drawn) |  | inconclusive: 44.7 µM [inhibitor, partial curve]
55 | Cc1cc(C)n(CC(O)Cn2c3ccc(Br)cc3c3cc(Br)ccc32)c(=O)n1 (stereo not drawn) |  | inconclusive: 56.2 µM [inhibitor, partial curve, poor fit]
56 | CCCCOc1ccc(C(=O)Nc2ccc3c(c2)C(=O)NC3=O)cc1 | inactive: 34.5% | 
57 | COC(=O)c1sc(=S)n(-c2cc(F)ccc2F)c1N |  | inconclusive: 31.6 µM [inhibitor, full curve]
58 | Cc1nn(-c2ccccc2)c2c1N(CC(=O)N1CCN(c3cccc(Cl)c3)CC1)C(=O)CS2 |  | inconclusive: 89.1 µM [inhibitor, single point]
59 | CCCCNC(=S)N1CCN(C)CC1 |  | active: 44.7 µM
60 | O=C(O)c1ccc(C[n+]2c(-c3ccccc3)csc2Nc2ccccc2)cc1 |  | inconclusive: 25.1 µM [inhibitor, partial curve, poor fit]
61 | CCCCNC(=S)NNC(=O)c1ccco1 | inactive: 33.2% | 
62 | CCOc1ccc(/C=N/Nc2nc(=O)[nH]nc2C)cc1OC | inactive: 28.9% | 
63 | Cc1ccc(NC(=O)CSc2nnc(-c3ccco3)c(-c3ccco3)n2)cc1 |  | inconclusive: 31.6 µM [inhibitor, single point]
64 | O=C(O)c1ccccc1NS(=O)(=O)c1ccc(N/N=C/c2cccc(O)c2O)c([N+](=O)[O-])c1 |  | inconclusive: 17.8 µM [inhibitor, full curve, poor fit]
65 | COc1ccc(/C=C2\SC(=S)N(N3CCOCC3)C2=O)c(OC)c1 |  | inconclusive: 12.6 µM [inhibitor, partial curve]
66 | CCOC(=O)N1CCC(N2CCN(S(=O)(=O)c3ccc([N+](=O)[O-])cc3)CC2)CC1 |  | inconclusive: 15.8 µM [inhibitor, full curve, poor fit]
67 | CCN(Cc1ccncc1)C(=O)c1cc(COc2ccc(F)cc2Cl)on1 | inactive: 8.77% | 
68 | Cc1cc2c(cc1S(=O)(=O)N1CCCCC1)OCC(=O)N2 |  | inconclusive: 3.98 µM [inhibitor, partial curve, poor fit]
